Laboratory results: the RNAGym collection of RNA variant scans (doi:10.7554/elife.90254)
Read counts are not given, so values of variants with three or more changes are uncertain.

B1: LINE1-mini (parent)
chain: GGCAGAGCUCAACACAGCGUGGCAAAGUGGCUGUGGCUAGACUGCC

Variants of: B1
Assay: self-cleavage, relative activity (ratio to wild type); higher = more cleavage; in vitro, sequencing; the parent is a self-cleaving ribozyme
Work on GGGAGAGCUCGACACAGCGCGGCAAAGUGGCUGUGGCUAGACUGCC [C3G A11G U20C] yielded a self-cleavage of 0.02.
With GGGAGAGCUCUACAUAGCGUGGCAAAGUGGCUCUGGCUAGACUGCC [C3G A11U C15U G33C] the self-cleavage was 0.03.
Variant GGGAGAGCUCUACACAGCGUGGCAAAGUGGCUGUGGCCAGACUGCC [C3G A11U U38C] has a self-cleavage of 0.04.
Variant GGGAGAGCUCACCACAGUGUGGCAAAGUGGCUGUGGCUAUACUGCC [C3G A12C C18U G40U] has a self-cleavage of 0.
Work on GGGAGAGCUCACCACAGCGUGGCAAAGUGGCUAUGGCUAGACUGCC [C3G A12C G33A] yielded a self-cleavage of 0.03.
Variant GGGAGAGCUCAGAACAGCGUGGCAAAGUGGCUGUGGCUAGACUGCC [C3G A12G C13A] has a self-cleavage of 0.08.
In the case of GGGAGAGCUCAGCACAGAGUGGCAAAGUGGCUGUGGCUAGACUGCC [C3G A12G C18A], the self-cleavage is reported as 0.34.
Work on GGGAGAGCUCAGCACAGCGCGGCAAAGUCACUGUGGCUAGACUGCC [C3G A12G U20C G29C G30A] yielded a self-cleavage of 0.08.
GGGAGAGCUCAUCACAGCGUGGCAAAGUGGCUGUGGCUAGGCUGCC [C3G A12U A41G] gave a self-cleavage of 0.05.
GGGAGAGCUCAUCACAGGGUGGCAAAGUGGCUGUGGCUAGACUGCC [C3G A12U C18G] showed a self-cleavage of 0.17.
With GGGAGAGCUCAUCACAUCUUAGCAAAGUGGCUGUGGCUAGACUGCC [C3G A12U G17U G19U G21A] the self-cleavage was 0.1.
With GGGAGAGCUCAUCACAGCCUGGCAAAGUGGCUGUGGGUCGACUGCC [C3G A12U G19C C37G A39C] the self-cleavage was 0.03.
In the case of GGGAGAGCUCAUCACAGCGUGUCAAAGUGCCUGUGGCCAGACUGCC [C3G A12U G22U G30C U38C], the self-cleavage is reported as 0.68.
For GGGAGAGCUCAACCUAGCGUGGCAAGGUGGCAGCGGCUAGACUGCC [C3G A14C C15U A26G U32A U34C], the self-cleavage was 0.04.
GGGAGAGCUCAACGCAACGUGGCAAAGUGGCUCUGGCUAGACUGCC [C3G A14G G17A G33C] showed a self-cleavage of 0.03.
For GGGAGAGCUCAACGCAGCGUGGCAAAGUGGCUGUUGAUAGACCGUA [C3G A14G G35U C37A U43C C45U C46A], the self-cleavage was 0.13.
Variant GGGAGAGCUCAACGCAGCGUGGCAAAGUGGCUGUGGCUAGACUACC [C3G A14G G44A] has a self-cleavage of 0.5.
Variant GGGAGAGCUCAACUCAGCGUGGCAAAGUGGGUGUGGCUAGACUGAC [C3G A14U C31G C45A] has a self-cleavage of 0.04.
Variant GGGAGAGCUCAACUCAGCGUGGCAAAGUGGCUGUGGCUAGAUUGCC [C3G A14U C42U] has a self-cleavage of 0.27.
For GGGAGAGCUCAACUCAGCUUGGCAAAGUGGCUGUGGCUAGACUGCG [C3G A14U G19U C46G], the self-cleavage was 0.27.
Variant GGGAGAGCUCAACUCAGCGUAGCAAAGUGGUUGACUCUAGACUGCC [C3G A14U G21A C31U U34A G35C G36U] has a self-cleavage of 0.01.
For GGGAGAGCUCAACUCAGCGUGGCAAAGUGCCAGUGGCUAGACUGCC [C3G A14U G30C U32A], the self-cleavage was 0.37.
For GGGAGAGCUCAACACCGCGUGGAAAAGUGGCUGUGACUCGACUGCC [C3G A16C C23A G36A A39C], the self-cleavage was 0.02.
In the case of GGGAGAGCUCAACACCGCGUAGGAAAGUGGCUGUGGCAGGACUGCC [C3G A16C G21A C23G U38A A39G], the self-cleavage is reported as 0.34.
For GGGAGAGCUCAACACGGCGGGGCAAAGUGCCUGUGGCUAGACUGCC [C3G A16G U20G G30C], the self-cleavage was 0.13.
For GGGAGAGCUCAACACUGCGUGGCAAAGUGGAUGUGGCUAGACUGCC [C3G A16U C31A], the self-cleavage was 0.03.
For GGGAGAGCUCAACACUGCUUGGAAAAGUGGCUGUGGCUAGACUGCC [C3G A16U G19U C23A], the self-cleavage was 0.03.
GGGAGAGCUCAACACUGCGUAGCGAACUGGCUGUGGCUAGACUGCC [C3G A16U G21A A24G G27C] showed a self-cleavage of 0.1.
GGGAGAGCUCAACACAGCGUGGCCAACUGGCUGUGGCGAGACUGCC [C3G A24C G27C U38G] gave a self-cleavage of 0.02.
GGGAGAGCUCAACACAGCGUGGCCAAGUGGCUGUGGCUAAACUGCC [C3G A24C G40A] showed a self-cleavage of 0.06.
Work on GGGAGAGCUCAACACAGCGUGGCGAAGUGGCUGUGGGUAGACUGCC [C3G A24G C37G] yielded a self-cleavage of 0.06.
For GGGAGAGCUCAACACAGCGUGGCGAAGUGGCUUUGGUUAGACUGCC [C3G A24G G33U C37U], the self-cleavage was 0.04.
In the case of GGGAGAGCUCAACACAGCGUGGCGAAGUGGCUGUGACUAGACUGAC [C3G A24G G36A C45A], the self-cleavage is reported as 0.04.
Variant GGGAGAGCUCAACACAGCGUGGCAGAGUGGCUGUGGCUAGUCUGCC [C3G A25G A41U] has a self-cleavage of 0.07.
Work on GGGAGAGCUCAACACAGCGUGGCAUAGUGGAUGUGGCUAGAAUGCC [C3G A25U C31A C42A] yielded a self-cleavage of 0.12.
Work on GGGAGAGCUCAACACAGCGUGGCAACGUGGCUGUGGCUAAACUGCC [C3G A26C G40A] yielded a self-cleavage of 0.02.
Work on GGGAGAGCUCAACACAGCGUGGCAAUGUGGCUAUGGCAAGACUGCC [C3G A26U G33A U38A] yielded a self-cleavage of 0.15.
GGGAGAGCUCAACACAGCGUGGCAAUGUGGCUGUUGCUAGACUGCC [C3G A26U G35U] gave a self-cleavage of 0.16.
With GGGAGAGCUCAACACAGCGUGGCAAAGUGGCUGUGGCUCGACUGAC [C3G A39C C45A] the self-cleavage was 0.06.
GGGAGAGAUCAAAACAGCGUGGCAAAGUGGCUGUGGAUAGACCGCC [C3G C8A C13A C37A U43C] showed a self-cleavage of 0.07.
For GGGAGAGAUCAACACAGCGUGUCAAAGUGGCUGUGGCUAGACUGCG [C3G C8A G22U C46G], the self-cleavage was 0.13.
GGGAGAGAUCAACACAGCGUGGCAAAGUGGCUGUGGCUAGACUUCC [C3G C8A G44U] showed a self-cleavage of 0.23.
Work on GGGAGAGAUCAACACAGCGUGGCAAAGAGGCUGUGGCUAGACUGCC [C3G C8A U28A] yielded a self-cleavage of 0.15.
GGGAGAGAUCAACACAGCGUGGCAAAGUGGCGGUGGCUAGACUUGC [C3G C8A U32G G44U C45G] showed a self-cleavage of 0.52.
In the case of GGGAGAGGUCAAGACGGCGUGGCAAAGUGGCUUUGGCUAUACUGCC [C3G C8G C13G A16G G33U G40U], the self-cleavage is reported as 0.07.
Work on GGGAGAGGUCAACACAGCGUGGCAAAGUGGAUGUGGCUAGACUGCC [C3G C8G C31A] yielded a self-cleavage of 0.03.
Work on GGGAGAGGUCAACACAGCGUGCCAAAGUGGCUGUGGCUAGACUGCC [C3G C8G G22C] yielded a self-cleavage of 0.31.
With GGGAGAGGUCAACACAGCGUGGCAAAGUUGCUAUGGCUAGAGUGCU [C3G C8G G29U G33A C42G C46U] the self-cleavage was 0.24.
Variant GGGAGAGGUCAACACAGCGUGGCAAAGUGCCUGUGUCUAGACUGCC [C3G C8G G30C G36U] has a self-cleavage of 0.56.
Variant GGGAGAGGUCAACACAGCGCGGCAAAGUGCCUGUGGCUAGACUGGC [C3G C8G U20C G30C C45G] has a self-cleavage of 0.08.
GGGAGAGGUCAACACAGCGUGGCAAAGUGGCUGCGGCUAGACUCCC [C3G C8G U34C G44C] showed a self-cleavage of 0.
Work on GGGAGAGUUCCACACAGCGUGGCAAAGUGUCUUUGGAUAGAGUGCC [C3G C8U A11C G30U G33U C37A C42G] yielded a self-cleavage of 0.04.
For GGGAGAGUUCAACCCAGCGUGGCAAAGUGACUGUGGCUAGACUGCC [C3G C8U A14C G30A], the self-cleavage was 0.05.
Work on GGGAGAGUUCAACACAGCGUGGCAAAGUGGUUGUGGCUAGACUGCC [C3G C8U C31U] yielded a self-cleavage of 0.27.
GGGAGAGUUCAACACACCGUGGCAAAGUGGCUGUGGCUAGACUGCU [C3G C8U G17C C46U] gave a self-cleavage of 0.29.
With GGGAGAGUUCAACACAGCAUGGCAAAGUGACUGUGGCUAGACUGCC [C3G C8U G19A G30A] the self-cleavage was 0.47.
